# Reference: article PMC12136788
# The other results are listed elsewhere or left out.
# T1: UNK ZnF1-3 (human, UniProt Q9C0B0 31-174)
# T1 sequence: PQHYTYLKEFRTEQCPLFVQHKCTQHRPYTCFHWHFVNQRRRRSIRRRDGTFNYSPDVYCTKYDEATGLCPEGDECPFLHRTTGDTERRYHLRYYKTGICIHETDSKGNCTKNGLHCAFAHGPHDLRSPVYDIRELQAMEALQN
# B1: chr8:72542918:72542919:-_ENSMUSG00000031858_ENSMUST00000050561|mus_mus|motif|central (ssRNA)
# RNA: GGGAGUUCUACAGUCCGACGAUCAGCUAUCAAGCCAAGAGGAGCUGAGCUGGUCCCAUAACUGUCCUCCAUGGGAAAGCGGAAUAGCUGCCAGGAAGGAACCCUCUCAUUCAGGUCCAAUGGGACUUCUGCCUGAUGCUUAGGCAACAGAGGAUUGAGCAUCA
# B2: 109252302_109260844_210_CDS_ENSG00000104408_ENST00000220849|human|control|control (ssRNA)
# RNA: GGGAGUUCUACAGUCCGACGAUCAGCAUGAGGAAUAUCAUCAGAAUAAAGGUUUUUGUAUACAUCCAUAGCAAAGUCUACCAUGUUGGUAUCACUAAGAAGGUCCAAUUUACCUUGUAAUAAUUCCUUUUCAUUAUAUAUCUCCAACAGAGGAUUGAGCAUCA
# B3: chr11:134021440:134021441:+_ENSG00000166086_ENST00000529443|hu_hu|FALSE|FALSE (ssRNA)
# RNA: GGGAGUUCUACAGUCCGACGAUCAUUCAUAUCUUAAAAUACACGAGUAUUCCUUUUCCGUCUAGUCUCAGUUAUAGGCAGCUACUUCCCAGACUCUACUUUCACUUCUCUCUACUUUUUCAGACCUGGUUCCCAUGGCACUAGCAACAGAGGAUUGAGCAUCA
# B4: chr2:152838176:152838177:-_ENSMUSG00000027472_ENSMUST00000028972|mus_mus|FALSE|FALSE (ssRNA)
# RNA: GGGAGUUCUACAGUCCGACGAUCCUGGAUCAUUUCCUUCGUCUUAGGGUGAGGCAUUUUGAUGAACAUGUUCCCAAAGCAAACCAUCACAUCUUCAGAGACACUCAGGUCCUUCUGUAGGGCCCUCAGGCCCUCUCGGUUCUGCAACAGAGGAUUGAGCAUCA
# B5: 124030095_124033324_562_ncRNA_ENSMUSG00000049550_ENSMUST00000125340|mouse|control|control (ssRNA)
# RNA: GGGAGUUCUACAGUCCGACGAUCCUUUGAAGAUCCACUAUUACCGAGUUGAGGAAAUCAAUCUGACUCUCCUGGGCUCUCUCAUCCUCUUCCGCCUGAGCAUCAGUGUUACCUGAGGAGCUGCUGAGCUGCCUCUUGUUCUCCCAACAGAGGAUUGAGCAUCA
# B6: chr2:48026839:48026840:+_ENSG00000116062_ENST00000540021|hu_hu|hu_hu_hu_mus_False|68_78 (ssRNA)
# RNA: GGGAGUUCUACAGUCCGACGAUCAUAGUGAGCCACUAGCGUCCUAAAUCUGGAACAAUGGCGAUCAUCUGAAAACUGGCCGAUGAAAAACUUGCCCAGUGAAGUGUCCACAAAGCAAACACCAUACACACGAGUGUGACCAGACAACAGAGGAUUGAGCAUCA
# B7: chr2:198351390:198351391:-_ENSG00000144381_ENST00000345042|hu_hu|hu_hu_hu_mus_False|48_88 (ssRNA)
# RNA: GGGAGUUCUACAGUCCGACGAUCUCAUUCCCACCCUCCACAGAAAGGCUGCUUAACAACUCUCAUGUGGUGACACAGCGCUACAGUCCUGAUUUUAACAGAACAGUAGAGAUGCCUCAGUGAUUUAAGUUGAAAGCAGGACACCAACAGAGGAUUGAGCAUCA
# B8: 115336417_115336537_413_CDS_ENSG00000165185_ENST00000337530|human|control|control (ssRNA)
# RNA: GGGAGUUCUACAGUCCGACGAUCUGGCCAGUGAUAAGCAUGGCCAGCACUACAGCCCCACAUUGCUGUCAGGUUCCCAUGGGAACCUUCAGAAAGCAAGUGUUUCAGGUUUGGAAUGAGGCUGCAAAUAGUCCCAUGGCUAUGCAACAGAGGAUUGAGCAUCA
# B9: chr1:229440444:229440445:+_ENSG00000168118_ENST00000366690|hu_hu|FALSE|FALSE (ssRNA)
# RNA: GGGAGUUCUACAGUCCGACGAUCAUAUUAACUGGAUUUAGUAGGUUUCCUUAAAAUGAACAGGAAACAAAAGAUGUGAAAAACAGGCAGUGAUGCCAUUAUACUGAAUUCCAGAAAAAGCACAGUACAAUGUGUUUUCUAGCACAACAGAGGAUUGAGCAUCA
# B10: chr7:79842110:79842111:+_ENSG00000127955_ENST00000351004|hu_mus|FALSE|FALSE (ssRNA)
# RNA: GGGAGUUCUACAGUCCGACGAUCUAUCGUGAGGGGGCUCUUUUUUAUUUUUUCUUCGAAGAGGUCCUUCUUGUUGAGGAAAAGGAUGAUGGACGUGUCUGUAAACCACUUGUUGUUACAGAUGCUAUCGAACAGCUUCAUGCUCAACAGAGGAUUGAGCAUCA
# B11: chr12:493273:493274:-_ENSG00000073614_ENST00000399788|hu_mus|hu_hu_hu_mus_False|48_48 (ssRNA)
# RNA: GGGAGUUCUACAGUCCGACGAUCUUUUCUCUCCACCACAGGGAUCUUCAAUGUAGAUCCUUGAAGUUCCCAAAAUUUUGCCAGUUGAUCCAAGAAAUCCAAUCUUACUCUAGUCAUUGCCUCAAGUUCAUUCAGGCGCUGGACCAACAGAGGAUUGAGCAUCA
# B12: chr5:128440902:128440903:+_ENSG00000066583_ENST00000173527|hu_mus|hu_hu_hu_mus_True|18_38 (ssRNA)
# RNA: GGGAGUUCUACAGUCCGACGAUCUUGAACGGUGCUGCCAAGUCCUUUGGGGUAUUGUUCCGUUAUGAUAACUGGAAUCCCUAAGAUCCGAGCUCCUUGCAACAAUCUCUGUCCCACGCUAAUAAUAUCCCCAAAGUAUUUGAUCAACAGAGGAUUGAGCAUCA
# B13: chr2:223789231:223789232:+_ENSG00000123983_ENST00000392066|hu_hu|FALSE|FALSE (ssRNA)
# RNA: GGGAGUUCUACAGUCCGACGAUCUUUUGAAAUCUGUUCCAUUUUGUAAUUAUAGGCCAGAAUAAACAGAUUACGUUGAAAACUACUCAUUUCACUGACUUUAUUCAUGACAUUUUUGUAGAUCCGAUCCAUGAUUUCCGGAACCAACAGAGGAUUGAGCAUCA
# B14: chr1:23374948:23374949:-_ENSMUSG00000026158_ENSMUST00000027343|mus_hu|motif|central (ssRNA)
# RNA: GGGAGUUCUACAGUCCGACGAUCCCAAAUCCUAAUACUCACAGAACACUAGGAAAGCAAAAACUGGCAUAUUAUGGGAACGGAAAAUGAGAAAGUGUUCCAUACUAUACUUAUUGGAACACAAUGUACAACAAAAGUGCUACUCAACAGAGGAUUGAGCAUCA
# Target: T1, UNK ZnF1-3
# Assay: nsRBNS (natural sequence RNA bind-n-seq); RBNS binding buffer (assumed for nsRBNS): 25 mM Tris pH 7.5, 150 mM KCl, 3 mM MgCl2, 0.01% Triton X-100, 500 ug/ml BSA, 20 U/ml SUPERase-In, 4 C; UNK is unkempt and MSI1 is Musashi-1; names of the RNAs are library labels; protein concentration not given here; high values mean tight binding
row,Binder,binding signal [enrichment R]
1,B1,1.26
2,B2,1.04
3,B3,0.572
4,B4,0.888
5,B5,0.856
6,B6,1.22
7,B7,0.872
8,B8,0.692
9,B9,0.816
10,B10,0.617
11,B11,1.11
12,B12,0.806
13,B13,0.52
14,B14,1.03
